PubChem BioAssay AID485364 (National Center for Advancing Translational Sciences (NCATS), 2010)
About 11,000 (3.1%) of roughly 360,000 compounds were called active. Inconclusive means that the source gave no clear call. Such entries were picked first, then a sample of the others. The call rests on the fitted dose curve; in most records, active means well fitted inhibition curve with a large enough effect; inconclusive means small, poorly fitted or top-dose-only effect; inactive means no such curve, though single readings can be large or run the other way. Potencies of inconclusive entries are left out as doubtful fits.

target: Schistosoma mansoni thioredoxin glutathione reductase (TGR) (UniProt Q962Y6); assay: qHTS Assay for the Inhibitors of Schistosoma Mansoni Peroxiredoxins; conditions: purified TGR, DTNB reduction, TNB absorbance 405 nm; activity change, negative = inhibition: at 114 µM (top of the series) unless noted; further: nearly all actives have a fitted effect of over 60% in size
Method in brief: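 First, TGR (20 nM dispensed) and NADPH were mixed with compound. Second, a 15 min room-temperature incubation followed. Third, further NADPH and then DTNB were added to start the reaction. Finally, TNB absorbance was monitored kinetically.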
On the % scale 0 is the no-effect control and ±100 the full control effect; potency means the concentration at half of the fitted maximal effect; tags describe the fitted curve by direction and shape.

SMILES | Potency | activity change, negative = inhibition
O=[N+]([O-])c1ccc(Sc2nccn2Cc2ccccc2)c([N+](=O)[O-])c1 | active: 28.2 µM | –
Cc1ccc(CN2[C@@H](Cc3ccccc3)C(=O)CS2(=O)=O)cc1 | inconclusive [inhibitor, partial curve] | –
Cn1cnnc1SCC(=O)c1ccco1 | inconclusive [inhibitor, partial curve] | –
Cc1cc(C(=O)c2ccc(Cl)cc2)c(NC(=O)CCl)s1 | – | inactive: -30%
COc1ccc(N2CCN(C(=O)CCS(=O)(=O)c3cccc4nsnc34)CC2)cc1 | inconclusive [inhibitor, partial curve] | –
COc1ccc(-n2c(SCC(N)=O)nc3c(oc4ccccc43)c2=O)cc1 | inconclusive [inhibitor, single point] | –
CC(C)n1c(CCC(=O)O)ccc1-c1ccccc1 | active: 17.8 µM | –
CCOc1ccc(CCNC(=O)COn2nnc3ccc(S(=O)(=O)N4CCOCC4)cc32)cc1OCC | – | inactive: -1.83%
Cc1ccc(N/C(C(Cl)=C(Cl)Cl)=C(/Cl)[N+](=O)[O-])c(C)c1 | active: 7.94 µM | –
O=S(=O)(NCC(c1cccnc1)N1CCN(c2ccc(F)cc2)CC1)c1ccc(F)cc1 (stereo not given) | inconclusive [inhibitor, partial curve] | –
O=C(Cn1nc(-c2ccco2)ccc1=O)Nc1ccc(Br)cc1 | inconclusive [inhibitor, full curve] | –
CS(=O)(=O)c1ccc(C(=O)OCC(=O)NC(=O)C2CCCCC2)cc1[N+](=O)[O-] | active: 7.08 µM | –
CCN(CC)CC(=O)c1ccc(-c2ccccc2)cc1 | inconclusive [inhibitor, partial curve] | –
Cc1cccc(-c2c3c(=O)n(C)c(=O)n(C)c3cn2CC2CCCO2)c1 (stereo not given) | active: 35.5 µM | –
COC(=O)/C(=C(/F)Sc1cc(C)c(O)c(C)c1)C(F)(F)F | inconclusive [inhibitor, full curve, poor fit] | –
Cn1nccc1C(=O)NC1CCCc2c1cnn2-c1ccc(C(C)(C)C)cc1 (stereo not given) | inconclusive [inhibitor, full curve, poor fit] | –
O=S(=O)(c1ccc(N2CCOCC2)c(Cl)c1)N1CCOCC1 | – | inactive: -2.21%
O=[N+]([O-])c1ccc2c(c1)nnn2-c1ccccc1 | – | inactive: -3.92%
O=C1CN(/N=C/c2ccc([N+](=O)[O-])o2)C(=O)N1 | inconclusive [inhibitor, partial curve] | –
COc1ccc(CCNC(=O)CSc2ccc(-c3ccco3)nn2)cc1OC | active: 17.8 µM | –
O=C(CSc1ccsc1[N+](=O)[O-])NC1CCCC1 | inconclusive [inhibitor, partial curve] | –
COc1ccc(Cn2c(C)c(C)c(C#N)c2NC(=O)Nc2ccccc2)cc1 | inconclusive [inhibitor, single point] | –
CCOC(=O)CSc1nnc(-c2ccncc2)o1 | inconclusive [inhibitor, single point] | –

SMILES | Potency | activity change, negative = inhibition
CC(C)C[C@@H](CSc1ccccc1)N1CCN(CCc2ccccc2)CCC1=O | inconclusive [inhibitor, partial curve] | –
Cc1ccc(S(=O)(=O)N2CCOCC2)cc1NC(=O)COc1ccc(C(=O)c2ccccc2)cc1 | – | inactive: 1.25%
C#CCOCCOCCOCCNc1nc(N2CCN(C(=O)[C@H](Cc3ccc(O)cc3)n3cc(CCO)nn3)CC2)nc(N2CCN(C(=O)[C@H](Cc3ccc(O)cc3)n3cc(CCO)nn3)CC2)n1 | active: 39.8 µM | –
CCN(CC)CCN(Cc1cc2cc(C)cc(C)c2[nH]c1=O)C(=S)NCc1ccco1 | – | inactive: -22.6%
Cc1cc(=O)n(C)c(=O)n1CCCCOc1ccc([N+](=O)[O-])cc1 | inconclusive [inhibitor, partial curve] | –
CN(CCC1CCOCC1)C(=O)CC1C(=O)NCCN1Cc1c(F)cccc1Cl (stereo not given) | active: 44.7 µM | –
Cc1occc1C(=O)Nc1cccc([N+](=O)[O-])c1 | inconclusive [inhibitor, single point] | –
COC(=O)C1=C(C)N(Cc2cccnc2)C(=O)/C1=C\c1cccs1 | inconclusive [inhibitor, partial curve] | –
O=C(Nc1ccccc1O)c1ccc([N+](=O)[O-])cc1 | inconclusive [inhibitor, single point] | –
COc1cc(C(Nc2ccccn2)c2ccc3ccc(C)nc3c2O)cc(OC)c1O (stereo not given) | active: 0.355 µM | –
O=c1[nH]c2ccccc2cc1CN(Cc1ccco1)S(=O)(=O)c1ccc(F)cc1 | inconclusive [inhibitor, partial curve] | –
COc1ccccc1CNC(=O)CSc1nc2nc(C)c(Cc3ccccc3Cl)c(C)n2n1 | – | inactive: -4.81%
O=C(/C=C/c1cccc(O)c1)c1cccnc1 | inconclusive [inhibitor, partial curve] | –
O=c1cc2c(=O)oc3cc(O)c(O)oc3c2c(O)c1O | inconclusive [inhibitor, partial curve] | –
CSc1ccc(S(=O)(=O)NCC(=O)OCC(=O)NCCc2ccccc2)cc1[N+](=O)[O-] | inconclusive [inhibitor, full curve, poor fit] | –
Cc1ccc(CNC(=O)[C@H](C)NC(=O)C2CCN(C(=O)[C@@H]3CCCN3C(=O)OC(C)(C)C)CC2)cc1 | – | inactive: 6.38%
O=C(c1ccccc1)N1CCN(c2n[nH]c(=O)[nH]c2=O)CC1 | – | inactive: -5.62%
CN(CC(=O)Nc1sccc1C#N)S(=O)(=O)c1ccc(F)cc1 | inconclusive [inhibitor, full curve, poor fit] | –
Cc1ccc(-n2nc(C)c3c2OC(N)=C(C#N)C3c2ccoc2)cc1 (stereo not given) | inconclusive [inhibitor, single point] | –
O=C(CCCl)Nc1ccc(S(=O)(=O)NCc2ccco2)cc1 | inconclusive [inhibitor, partial curve] | –
CCOc1ccccc1NC(=O)Cn1nnc(C(=O)NCc2ccco2)c1N | – | inactive: -9.12%
COC(=O)c1ccccc1NC(=S)NC(=O)c1ccc(C)cc1 | active: 11.2 µM | –
